# Results published in the supplement of paper PMC7826260.
# The other results are listed elsewhere or left out. Cleavage of a single-stranded DNA pool by Rep nickase domains was read by sequencing (3 µM enzyme, 1 h, 37 °C); shown is the middle of each 90-letter strand. Uncut reads are compared with the no-enzyme pool on a log2 scale; strong cutting gives strongly negative numbers. There is no active / inactive call. The scaling is to total reads; where an enzyme cuts many sequences, the uncut ones exceed 0.
# System: T1, Rep nickase domain of faba bean necrotic yellows virus
# T1 sequence (residues 1-98 of Rep, tag left off): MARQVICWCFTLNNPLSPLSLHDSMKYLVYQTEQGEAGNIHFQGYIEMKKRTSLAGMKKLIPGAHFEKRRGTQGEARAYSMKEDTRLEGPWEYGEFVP
# Experiment: uncleaved DNA left, log2 of reads against the no-enzyme library (log2 ratio); higher = less cleavage (more negative = more Rep cleavage of the k-mer); sequences stand for … in CTCGTCCG…ACCGGAGA
# Method: (§1)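 A pool of 90-nt single-stranded DNAs with seven random bases just before the constant AC of the nick site (name = the seven bases) was cut by 3 µM recombinant His6-SUMO-tagged Rep nickase domain (300 nM DNA, 50 mM HEPES pH 8.0, 50 mM NaCl, 1 mM MnCl2, 1 h, 37 °C, three replicates). Uncut DNA was amplified and sequenced.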
row,Sequence,uncleaved DNA left (log2)
1,CGTTCGC,0.032
2,AGAACCC,0.172
3,CAGTGGC,0.0359
4,TTCCCCA,0.0392
5,GATCGTG,0.0543
6,GTCCGGA,-0.0204
7,GTTAAAC,-0.0154
8,ATTCCTT,0.0698
9,CCGTGAA,-0.0234
10,CGCTGTT,-0.349
11,TTGTCGC,-0.0506
12,GTACGTC,0.0463
13,CCGATCC,-0.0747
14,AGGGAGT,-0.0439
15,CACCTGC,-0.00921
16,CGTCCTC,-0.0117
17,TCCATAT,0.0818
18,ATATCTG,0.00924
19,TTTCGAT,-0.0145
20,TCGGTGC,-0.0506

row,Sequence,uncleaved DNA left (log2)
1,CCTAACA,-0.0792
2,TTCAAAC,0.0433
3,TCGGAAC,-0.00567
4,AGGGGTG,-0.147
5,GACGCTT,0.122
6,ACTGGTC,-0.00291
7,CAATTTA,0.077
8,TCCTTGG,0.0178
9,AAATGGT,-0.0147
10,TTGATCT,-0.111
11,AGCCATT,0.123
12,GCACGCG,0.0326
13,CCAGTCA,0.038
14,AGGGCCC,-0.0893
15,TCCACAA,-0.0296
16,TGCGAAC,0.138
17,GTTCGAA,-0.0578
18,ACGGCTC,-0.183
19,ATATAGG,0.0623
20,TGTTCGA,0.0893

# System: T2, Rep nickase domain of maize striate mosaic virus
# T2 sequence (residues 1-117 of Rep, tag left off): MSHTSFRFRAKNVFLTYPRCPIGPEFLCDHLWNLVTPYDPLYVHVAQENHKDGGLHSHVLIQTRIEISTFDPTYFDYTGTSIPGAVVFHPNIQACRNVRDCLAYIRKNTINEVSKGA
# Experiment: as above
# Method: as §1
row,Sequence,uncleaved DNA left (log2)
1,CGTTCGC,-0.739
2,AGAACCC,2.05
3,CAGTGGC,-1.12
4,TTCCCCA,-0.00242
5,GATCGTG,-0.667
6,GTCCGGA,1.35
7,GTTAAAC,1.59
8,ATTCCTT,-0.475
9,CCGTGAA,-0.0759
10,CGCTGTT,0.438
11,TTGTCGC,-1.04
12,GTACGTC,1.3
13,CCGATCC,-0.205
14,AGGGAGT,1.74
15,CACCTGC,-0.852
16,CGTCCTC,0.289
17,TCCATAT,-0.543
18,ATATCTG,0.263
19,TTTCGAT,-0.0346
20,TCGGTGC,-0.963

row,Sequence,uncleaved DNA left (log2)
1,CCTAACA,-0.852
2,TTCAAAC,-0.203
3,TCGGAAC,0.581
4,AGGGGTG,0.18
5,GACGCTT,0.981
6,ACTGGTC,0.205
7,CAATTTA,-1.05
8,TCCTTGG,-0.0494
9,AAATGGT,-0.412
10,TTGATCT,-0.555
11,AGCCATT,0.39
12,GCACGCG,-0.313
13,CCAGTCA,-0.999
14,AGGGCCC,1.08
15,TCCACAA,-0.269
16,TGCGAAC,-0.399
17,GTTCGAA,1.56
18,ACGGCTC,-0.331
19,ATATAGG,0.365
20,TGTTCGA,-0.908

# System: T3, Rep nickase domain of porcine circovirus 2
# T3 sequence (residues 2-116 of Rep, tag left off): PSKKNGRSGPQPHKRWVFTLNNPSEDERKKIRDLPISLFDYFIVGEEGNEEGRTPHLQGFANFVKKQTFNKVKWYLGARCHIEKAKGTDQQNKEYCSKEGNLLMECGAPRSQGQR
# Experiment: as above
# Method: as §1
row,Sequence,uncleaved DNA left (log2)
1,CGTTCGC,0.187
2,AGAACCC,0.202
3,CAGTGGC,-0.182
4,TTCCCCA,-0.477
5,GATCGTG,0.215
6,GTCCGGA,0.16
7,GTTAAAC,-0.0382
8,ATTCCTT,-2.29
9,CCGTGAA,0.0666
10,CGCTGTT,-2.92
11,TTGTCGC,-0.00992
12,GTACGTC,0.03
13,CCGATCC,-0.0396
14,AGGGAGT,0.0614
15,CACCTGC,-0.139
16,CGTCCTC,0.0744
17,TCCATAT,-0.00799
18,ATATCTG,0.159
19,TTTCGAT,-0.0474
20,TCGGTGC,0.0526

row,Sequence,uncleaved DNA left (log2)
1,CCTAACA,-0.078
2,TTCAAAC,0.0556
3,TCGGAAC,0.00166
4,AGGGGTG,0.0744
5,GACGCTT,-0.3
6,ACTGGTC,-0.0374
7,CAATTTA,-1.11
8,TCCTTGG,0.109
9,AAATGGT,-3.6
10,TTGATCT,-0.407
11,AGCCATT,-0.307
12,GCACGCG,0.183
13,CCAGTCA,-0.138
14,AGGGCCC,0.0763
15,TCCACAA,0.0614
16,TGCGAAC,0.137
17,GTTCGAA,0.00404
18,ACGGCTC,-0.0139
19,ATATAGG,0.104
20,TGTTCGA,0.0892

# System: T4, Rep nickase domain of tomato golden mosaic virus
# T4 sequence (residues 1-124 of Rep, tag left off): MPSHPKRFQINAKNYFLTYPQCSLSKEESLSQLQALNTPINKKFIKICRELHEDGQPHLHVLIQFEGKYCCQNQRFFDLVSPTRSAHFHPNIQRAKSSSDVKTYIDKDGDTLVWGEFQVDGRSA
# Experiment: as above
# Method: as §1
row,Sequence,uncleaved DNA left (log2)
1,CGTTCGC,-0.0488
2,AGAACCC,0.011
3,CAGTGGC,-0.168
4,TTCCCCA,-0.0141
5,GATCGTG,0.0748
6,GTCCGGA,0.128
7,GTTAAAC,0.0756
8,ATTCCTT,0.0194
9,CCGTGAA,0.0914
10,CGCTGTT,-0.268
11,TTGTCGC,-0.199
12,GTACGTC,0.0357
13,CCGATCC,0.16
14,AGGGAGT,0.0883
15,CACCTGC,-0.113
16,CGTCCTC,0.0651
17,TCCATAT,0.00751
18,ATATCTG,0.0463
19,TTTCGAT,-0.0521
20,TCGGTGC,-0.189

row,Sequence,uncleaved DNA left (log2)
1,CCTAACA,-0.0337
2,TTCAAAC,0.0771
3,TCGGAAC,-0.0395
4,AGGGGTG,0.0662
5,GACGCTT,0.12
6,ACTGGTC,-0.0179
7,CAATTTA,-0.185
8,TCCTTGG,0.291
9,AAATGGT,-1.47
10,TTGATCT,-0.11
11,AGCCATT,0.0617
12,GCACGCG,-0.00252
13,CCAGTCA,-0.0405
14,AGGGCCC,-0.02
15,TCCACAA,-0.0488
16,TGCGAAC,0.0598
17,GTTCGAA,0.0736
18,ACGGCTC,-0.114
19,ATATAGG,0.147
20,TGTTCGA,-0.0577

# System: T5, Rep nickase domain of tomato yellow leaf curl virus
# T5 sequence (residues 1-136 of Rep, tag left off): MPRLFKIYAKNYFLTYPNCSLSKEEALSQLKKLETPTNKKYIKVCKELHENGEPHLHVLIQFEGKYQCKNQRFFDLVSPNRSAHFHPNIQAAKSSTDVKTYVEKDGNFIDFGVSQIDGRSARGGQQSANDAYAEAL
# Experiment: as above
# Method: as §1
row,Sequence,uncleaved DNA left (log2)
1,CGTTCGC,0.06
2,AGAACCC,0.129
3,CAGTGGC,-0.157
4,TTCCCCA,0.113
5,GATCGTG,0.0844
6,GTCCGGA,0.127
7,GTTAAAC,0.0802
8,ATTCCTT,-0.0661
9,CCGTGAA,0.157
10,CGCTGTT,-0.318
11,TTGTCGC,-0.0132
12,GTACGTC,0.0136
13,CCGATCC,-0.161
14,AGGGAGT,-0.0603
15,CACCTGC,0.116
16,CGTCCTC,0.0893
17,TCCATAT,0.00643
18,ATATCTG,-0.0241
19,TTTCGAT,-0.0168
20,TCGGTGC,-0.0279

row,Sequence,uncleaved DNA left (log2)
1,CCTAACA,0.0281
2,TTCAAAC,0.0054
3,TCGGAAC,-0.0653
4,AGGGGTG,-0.174
5,GACGCTT,0.159
6,ACTGGTC,-0.237
7,CAATTTA,-0.0725
8,TCCTTGG,0.0474
9,AAATGGT,-0.0627
10,TTGATCT,0.0485
11,AGCCATT,0.0202
12,GCACGCG,0.00906
13,CCAGTCA,0.00764
14,AGGGCCC,0.075
15,TCCACAA,-0.00252
16,TGCGAAC,-0.0059
17,GTTCGAA,0.0304
18,ACGGCTC,-0.139
19,ATATAGG,-0.0124
20,TGTTCGA,0.0859
